Laboratory results: the RNAGym collection of RNA variant scans (doi:10.1073/pnas.2313332121)
This sample is rich in variants without activity.

B1: TPR 5TU (parent)
chain: GGAUCUUCUCGAUCUAACAAAAAAGACAAAUCUGCCACAAAGCUUGAGAGCAUCUUCGGAUGCAGAGGCGGCAGCCUUCGGUGGCGCGAUAGCGCCAACGUUCUCAACUAUGACACGCAAAACGCGUGCUCCGUUGAAUGGAGUUUAUCAUG

Variants of: B1
Assay: polymerase ribozyme fitness, log enrichment relative to wild type (log ratio); higher = more active; in vitro selection for triplet polymerase activity
How it was run: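 One round of in vitro selection, in triplicate, was applied to PCR-built, transcribed mutant libraries of each subunit of a heterodimeric triplet polymerase ribozyme. The steps were annealing with a biotinylated primer, partner subunit and triplets, incubation frozen at −7 °C, gel excision of extended constructs, streptavidin-bead capture and RT-PCR. Fitness is the logarithm, base 2, of genotype enrichment over wild-type enrichment from inverse-variance-weighted replicate averages of Illumina-sequenced inputs and outputs, keeping genotypes with ≥10 input reads and ≥1 read per output.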

Polymerase ribozyme fitness (log ratio), -4.13:
C57G C87U A89C C116A C132A
C57G C93A A113G A120C

Polymerase ribozyme fitness (log ratio), -0.394:
C57U C75U C123G U144C

Polymerase ribozyme fitness (log ratio), -3.44:
C57G A113G

Polymerase ribozyme fitness (log ratio), -0.383:
C57A C96A

Polymerase ribozyme fitness (log ratio), 0.403:
C57G U101A

Polymerase ribozyme fitness (log ratio), ≤ -4.2:
C57A C75A C87U C103G C125G
C57A C76A C87U G100C
C57A C76G
C57A C85A A107G
C57A C85A G94C G128A G136A A142U
C57A C87G A89G C95U C116U
C57A C95U A98G G140C U144G
C57A C129U G141A
C57A G58A G59A C85U C103G A110C A113G U145A
C57A G58A G68U A119G G141U
C57A G59C G83C A107U
C57A G62A G86A A113G A120U U127C G136A A142C
C57A G68U A138C A150U
C57A G71A C93A C118U G140U C149U
C57A G74U G88U A115G A119U U145G C149G
C57A G81U A91U C95G C105A A107U
C57A G83C C87U U134G U139A U144G
C57A G83C G94C A97U C131G
C57A G86C G88U G117C G133U G141C
C57A G86U A107U C108G
C57A G88U G92A G100A A106U C125U
C57A G140A
C57A U61A C87A C103G A115C G141C C149G
C57A U61A C132G A137G
C57A U61A G92U G94U U104A A106G C149U
C57A U61G U78G G88A U148A
C57A U77G G88U C96U A137C U144A
C57A U90G C105U
C57A U102G C108A C132U
C57G A60U U61A C69U G70A C79U A142C C149U
C57G A91U A119U G143U
C57G A107G
C57G C75A C93A A113G A115U U145A
C57G C75G G94A A150C G152A
C57G C75G U78A
C57G C75U C96A C125U C149A
C57G C79A
C57G C79U G84A A137U G143A
C57G C79U U139A
C57G C85G C99G A115G
C57G C85G G88A C125G U145A
C57G C85U U104A U134C U151C
C57G G58C C75G G83A
C57G G67A G84U C85A G92U G141A
C57G G68A A91U C99U A115U U139A
C57G G71U C85U C93U A106G C114G G152A
C57G G94C C114G C118A
C57G U77A C87U A110C
C57U A60G U77A G80A G81U G133U
C57U A60U G68U C76U C93G C105U A110U U130C A137G
C57U A64C U78G A121G
C57U A66G G88C A91U G126A
C57U A66G G92U A150U
C57U A73C C87A C105G A147G
C57U A73U G81U C85G C95G A106U A115C G136A
C57U A89C C96G A97U C114U C125G G136A A137G
C57U A91G C108U
C57U A97C G141C C149G

Polymerase ribozyme fitness (log ratio), -3.07:
C57A U78C C95G C99G

Polymerase ribozyme fitness (log ratio), -1.79:
C57G G84U

Polymerase ribozyme fitness (log ratio), -0.518:
C57G G84A

Polymerase ribozyme fitness (log ratio), -1.39:
C57G G58U C93A

Polymerase ribozyme fitness (log ratio), -3.22:
C57G G59A G80U G92U C99A C131U U135A

Polymerase ribozyme fitness (log ratio), -3.03:
C57A C79U C93U A98U A147U

Polymerase ribozyme fitness (log ratio), -3.75:
C57G C87A U144C

Polymerase ribozyme fitness (log ratio), -3.49:
C57A G141A G152U

Polymerase ribozyme fitness (log ratio), -1.49:
C57G U82A G83U G141U

Polymerase ribozyme fitness (log ratio), -2.81:
C57G C69G U101G C118U

Polymerase ribozyme fitness (log ratio), -3.96:
C57G C76U G88A G92U

Polymerase ribozyme fitness (log ratio), -3.12:
C57A G59A G84U A97U C118G

Polymerase ribozyme fitness (log ratio), -4.07:
C57A C95A C96U G141A

Polymerase ribozyme fitness (log ratio), -0.0166:
C57A U146A

Polymerase ribozyme fitness (log ratio), -2.04:
C57A C93A

Polymerase ribozyme fitness (log ratio), -4.08:
C57G G140C

Polymerase ribozyme fitness (log ratio), -2.62:
C57A G128C

Polymerase ribozyme fitness (log ratio), -3.95:
C57U A91U

Polymerase ribozyme fitness (log ratio), 0.71:
C57A U101G
